# Measurements as given in the supplement of paper PMC8728848.
# Some of the results follow.
# What was measured:
# Assay in all cases: glycan array binding signal (z-score within array); higher = stronger binding
# Details in all cases: glycan notation: IUPAC condensed, linker removed
# [1] = target: Gal(b1-3)GlcNAc(b1-6)GalNAc
# Method in brief: (§1)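 Arrays were curated from the Consortium for Functional Glycomics database, 3228 in total, and kept only where the protein sequence was available. Binding is expressed as a within-array Z-score. This score was averaged across arrays of the same protein sequence at different concentrations or buffers and across linkers, and negative values can be read as non-binding.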
# [2] = target: Gal(b1-3)GlcNAc(b1-6)[Gal(b1-3)]GalNAc
# Method in brief: as §1
# Gal(b1-3)GlcNAc6S = target: Gal(b1-3)GlcNAc6S
# Method in brief: as §1
# [3] = target: Gal(b1-3)[Fuc(a1-4)]GlcNAc
# Method in brief: as §1
# [4] = target: Gal(b1-3)[Fuc(a1-4)]GlcNAc(b1-2)Man
# Method in brief: as §1
# [5] = target: Gal(b1-3)[Fuc(a1-4)]GlcNAc(b1-2)Man(a1-3)[Gal(b1-3)[Fuc(a1-4)]GlcNAc(b1-2)Man(a1-6)]Man(b1-4)GlcNAc(b1-4)[Fuc(a1-6)]GlcNAc
# Method in brief: as §1
# [6] = target: Gal(b1-3)[Fuc(a1-4)]GlcNAc(b1-3)Gal(b1-3)[Fuc(a1-4)]GlcNAc
# Method in brief: as §1
# [7] = target: Gal(b1-3)[Fuc(a1-4)]GlcNAc(b1-3)Gal(b1-4)[Fuc(a1-3)]GlcNAc
# Method in brief: as §1
# [8] = target: Gal(b1-3)[Fuc(a1-4)]GlcNAc(b1-6)GalNAc
# Method in brief: as §1
# [9] = target: Gal(b1-3)[GlcNAc(b1-6)]GalNAc
# Method in brief: as §1
# [10] = target: Gal(b1-3)[Neu5Ac(a2-6)]GalNAc
# Method in brief: as §1
# [11] = target: Gal(b1-3)[Neu5Ac(a2-6)]GlcNAc(b1-4)Gal(b1-4)Glc
# Method in brief: as §1
# [12] = target: Gal(b1-3)[Neu5Ac(b2-6)]GalNAc
# Method in brief: as §1
# Gal(b1-4)Gal = target: Gal(b1-4)Gal
# Method in brief: as §1
# [13] = target: Gal(b1-4)GalNAc(a1-3)[Fuc(a1-2)]Gal(b1-4)GlcNAc
# Method in brief: as §1
# [14] = target: Gal(b1-4)GalNAc(b1-3)[Fuc(a1-2)]Gal(b1-4)GlcNAc
# Method in brief: as §1
# Gal(b1-4)Glc = target: Gal(b1-4)Glc
# Method in brief: as §1
# Gal(b1-4)Glc6S = target: Gal(b1-4)Glc6S
# Method in brief: as §1
# Gal(b1-4)GlcNAc = target: Gal(b1-4)GlcNAc
# Method in brief: as §1
# [15] = target: Gal(b1-4)GlcNAc(a1-6)Gal(b1-4)GlcNAc
# Method in brief: as §1
# Gal(b1-4)GlcNAc(b1-2)Man = target: Gal(b1-4)GlcNAc(b1-2)Man
# Method in brief: as §1
# [16] = target: Gal(b1-4)GlcNAc(b1-2)Man(a1-3)Man(b1-4)GlcNAc(b1-4)GlcNAc
# Method in brief: as §1
# [17] = target: Gal(b1-4)GlcNAc(b1-2)Man(a1-3)[Gal(b1-4)GlcNAc(b1-2)Man(a1-6)]Man(b1-4)GlcNAc(b1-4)GlcNAc
# Method in brief: as §1
# [18] = target: Gal(b1-4)GlcNAc(b1-2)Man(a1-3)[Gal(b1-4)GlcNAc(b1-2)Man(a1-6)]Man(b1-4)GlcNAc(b1-4)[Fuc(a1-6)]GlcNAc
# Method in brief: as §1
# [19] = target: Gal(b1-4)GlcNAc(b1-2)Man(a1-3)[Gal(b1-4)GlcNAc(b1-2)Man(a1-6)][Gal(b1-4)GlcNAc(b1-4)]Man(b1-4)GlcNAc(b1-4)[Fuc(a1-6)]GlcNAc
# Method in brief: as §1
# [20] = target: Gal(b1-4)GlcNAc(b1-2)Man(a1-3)[Gal(b1-4)GlcNAc(b1-2)Man(a1-6)][GlcNAc(b1-4)]Man(b1-4)GlcNAc(b1-4)[Fuc(a1-6)]GlcNAc
# Method in brief: as §1
# [21] = target: Gal(b1-4)GlcNAc(b1-2)Man(a1-3)[GlcNAc(b1-2)Man(a1-6)]Man(b1-4)GlcNAc(b1-4)GlcNAc
# Method in brief: as §1
# [22] = target: Gal(b1-4)GlcNAc(b1-2)Man(a1-3)[GlcNAc(b1-4)][Gal(b1-4)GlcNAc(b1-2)Man(a1-6)]Man(b1-4)GlcNAc(b1-4)GlcNAc
# Method in brief: as §1
# [23] = target: Gal(b1-4)GlcNAc(b1-2)Man(a1-3)[Man(a1-6)]Man(b1-4)GlcNAc(b1-4)GlcNAc
# Method in brief: as §1
# [24] = target: Gal(b1-4)GlcNAc(b1-2)Man(a1-6)Man(b1-4)GlcNAc(b1-4)GlcNAc
# Method in brief: as §1
# [25] = target: Gal(b1-4)GlcNAc(b1-2)Man(a1-6)[GlcNAc(b1-2)Man(a1-3)]Man(b1-4)GlcNAc(b1-4)GlcNAc
# Method in brief: as §1
# [26] = target: Gal(b1-4)GlcNAc(b1-2)Man(a1-6)[Man(a1-3)]Man(b1-4)GlcNAc(b1-4)GlcNAc
# Method in brief: as §1
# [27] = target: Gal(b1-4)GlcNAc(b1-2)[Gal(b1-4)GlcNAc(b1-4)]Man(a1-3)[Gal(b1-4)GlcNAc(b1-2)Man(a1-6)]Man(b1-4)GlcNAc(b1-4)GlcNAc
# Method in brief: as §1
# [28] = target: Gal(b1-4)GlcNAc(b1-2)[Gal(b1-4)GlcNAc(b1-4)]Man(a1-3)[Gal(b1-4)GlcNAc(b1-2)[Gal(b1-4)GlcNAc(b1-6)]Man(a1-6)]Man(b1-4)GlcNAc(b1-4)GlcNAc
# Method in brief: as §1
# [29] = target: Gal(b1-4)GlcNAc(b1-2)[Gal(b1-4)GlcNAc(b1-4)]Man(a1-3)[GlcNAc(b1-4)][Gal(b1-4)GlcNAc(b1-2)Man(a1-6)]Man(b1-4)GlcNAc(b1-4)GlcNAc
# Method in brief: as §1
# [30] = target: Gal(b1-4)GlcNAc(b1-2)[Gal(b1-4)GlcNAc(b1-4)]Man(a1-3)[GlcNAc(b1-4)][Gal(b1-4)GlcNAc(b1-2)[Gal(b1-4)GlcNAc(b1-6)]Man(a1-6)]Man(b1-4)GlcNAc(b1-4)GlcNAc
# Method in brief: as §1
# [31] = target: Gal(b1-4)GlcNAc(b1-2)[Gal(b1-4)GlcNAc(b1-6)]Man(a1-6)[Gal(b1-4)GlcNAc(b1-2)Man(a1-3)]Man(b1-4)GlcNAc(b1-4)GlcNAc
# Method in brief: as §1
binder,measurement,setting,value
"Apa (Mycobacterium tuberculosis), Rv1860 (protein) MHQVDPNLTRRKGRLAALAIAAMASASLVTVAVPATANADPEPAPPVPTTAASPPSTAAAPPAPATPVAPPPPAAANTPNAQPGDPNAAPPPADPNAPPPPVIAPNAPQPVRIDNPVGGFSFALPAGWVESDAAHFDYGSALLSKTTGDPPFPGQPPPVANDTRIVLGRLDQKLYASAEATDSKAAARLGSDMGEFYMPYPGTRINQETVSLDANGVSGSASYYEVKFSDPSKPNGQIWTGVIGSPAANAPDAGPPQRWFVVWLGTANNPVDKGAAKALAESIRPLVAPPPAPAPAPAEPAPAPAPAGEVAPTPTTPTPQRTLPA",glycan array binding signal (z-score),[1],-0.451
same,glycan array binding signal (z-score),[2],-0.074
same,glycan array binding signal (z-score),Gal(b1-3)GlcNAc6S,-0.259
same,glycan array binding signal (z-score),[3],-0.388
same,glycan array binding signal (z-score),[4],1.49
same,glycan array binding signal (z-score),[5],-0.158
same,glycan array binding signal (z-score),[6],-0.052
same,glycan array binding signal (z-score),[7],0.702
same,glycan array binding signal (z-score),[8],-0.162
same,glycan array binding signal (z-score),[9],-0.214
same,glycan array binding signal (z-score),[10],-0.007
same,glycan array binding signal (z-score),[11],-0.581
same,glycan array binding signal (z-score),[12],-0.114
same,glycan array binding signal (z-score),Gal(b1-4)Gal,-0.51
same,glycan array binding signal (z-score),[13],-0.467
same,glycan array binding signal (z-score),[14],5.04
same,glycan array binding signal (z-score),Gal(b1-4)Glc,0.077
same,glycan array binding signal (z-score),Gal(b1-4)Glc6S,-0.221
same,glycan array binding signal (z-score),Gal(b1-4)GlcNAc,0.425
same,glycan array binding signal (z-score),[15],0.281
same,glycan array binding signal (z-score),Gal(b1-4)GlcNAc(b1-2)Man,0.451
same,glycan array binding signal (z-score),[16],-0.298
same,glycan array binding signal (z-score),[17],-0.496
same,glycan array binding signal (z-score),[18],-0.333
same,glycan array binding signal (z-score),[19],-0.339
same,glycan array binding signal (z-score),[20],-0.117
same,glycan array binding signal (z-score),[21],-0.224
same,glycan array binding signal (z-score),[22],-0.591
same,glycan array binding signal (z-score),[23],-0.42
same,glycan array binding signal (z-score),[24],-0.345
same,glycan array binding signal (z-score),[25],-0.403
same,glycan array binding signal (z-score),[26],-0.426
same,glycan array binding signal (z-score),[27],-0.527
same,glycan array binding signal (z-score),[28],-0.487
same,glycan array binding signal (z-score),[29],-0.282
same,glycan array binding signal (z-score),[30],0.024
same,glycan array binding signal (z-score),[31],-0.288
